Reference: the RNAGym collection of RNA variant scans (doi:10.1073/pnas.2313332121)
This sample is rich in variants without activity.

B1: TPR 5TU (parent)
chain: GGAUCUUCUCGAUCUAACAAAAAAGACAAAUCUGCCACAAAGCUUGAGAGCAUCUUCGGAUGCAGAGGCGGCAGCCUUCGGUGGCGCGAUAGCGCCAACGUUCUCAACUAUGACACGCAAAACGCGUGCUCCGUUGAAUGGAGUUUAUCAUG

Variants of: B1
Assay: polymerase ribozyme fitness, log enrichment relative to wild type (log ratio); higher = more active; in vitro selection for triplet polymerase activity
Procedure, shortened: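 Streptavidin-bead capture of gel-excised extended constructs, followed by RT-PCR, closed a single triplicate in vitro selection round. That round began by annealing PCR-built, transcribed mutant libraries of each subunit of a heterodimeric triplet polymerase ribozyme with a biotinylated primer, the partner subunit and triplets, then incubating them frozen at −7 °C. After Illumina sequencing of inputs and outputs, genotypes needed ≥10 input reads and ≥1 read per output. Fitness is the base-2 logarithm of genotype enrichment over wild-type enrichment, using inverse-variance-weighted replicate averages.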

Row | Variant | polymerase ribozyme fitness (log ratio)
1 | GGAUCUUCUCGAUCUAACAAAAAAGACAAAUCUGCCACAAAGCUUGAGGGCCUCUUCGGAUGCAGAGGCGGCAGCCUUCGGUGGCGCGAUAGCACCAACGUCCUCAACUAUGACACGCAAAACGCGUGCUCCGUUGAAUGGAGUUUAUCAGG | ≤ -4.2
2 | GGAUCUUCUCGAUCUAACAAAAAAGACAAAUCUGCCACAAAGCUUGAGGGCGUCUUCGGAUGCAGAGUGGGCAGCCUUCGGUGGCGCGAUAGCGCCAACCUUCUCAACUAUGACACGCAAAACGCGUGCUCCGUUGAAUGGAGUUUAUCAUG | ≤ -4.2
3 | GGAUCUUCUCGAUCUAACAAAAAAGACAAAUCUGCCACAAAGCUUGAGGGCGUCAUCGGAUGCAGAAGCGGCAGCCUUCGGUGGCGCGAUAGCGCCAACGUUCUCAUCUAUGACACGCAAAACGCGUGCUCCCUUGGACGGAGUUUAUCAUG | ≤ -4.2
4 | GGAUCUUCUCGAUCUAACAAAAAAGACAAAUCUGCCACAAAGCUUGAGGGCAUCUUCGGAUGCAGAGGCGGCUGCCUUCGGUGGCGCGAUAGCGCUAACGUUCUCAACGAUGACACGCAAAAGGCGUGCUCCGUUGAAUGGAGUUUAUGAUG | ≤ -4.2
5 | GGAUCUUCUCGAUCUAACAAAAAAGACAAAUCUGCCACAAAGCUUGAGGGGAUCUUCGGAUGCAGAGGCGGCAGCCUUCGGUGGGGCGAUAGCGGCAACGUUCUCAAUUAUGACACGCAAAACGCGUGCUCCGUUGAAUGGAGUUUAUCAUG | ≤ -4.2
6 | GGAUCUUCUCGAUCUAACAAAAAAGACAAAUCUGCCACAAAGCUUGAGGGCAUAUUCGGAUGCAGAGGCGGCAGCCUUCGGUGGCGCGAUAGCGCCAACGUUCUCAACUAUGACACGAAAAACGCGUGCUCCGUUGAAUGGAGUUUAUCAUG | -3.25
7 | GGAUCUUCUCGAUCUAACAAAAAAGACAAAUCUGCCACAAAGCUUGAGGGCAUCUUCGGAUGAAGAGGCGGCAGCCUUCGGUGGCGCGAUACCGCCAAAGUUCUCCAUUAUGUCACGAAAAACGCGUGCUCCGUUGAAUGGAGUUUAUCAUG | ≤ -4.2
8 | GGAUCUUCUCGAUCUAACAAAAAAGACAAAUCUGCCACAAAGCUUGAGGGCAUCUUCGGAUGUAGAGGCGGCAGCCUUCGCUGGCGCGAUAGCGCCAACGUUCGCAACUAUGACACGCAAAACGCGUGCUCCGUUGAAUGGAGUUUAUCAUG | -2.29
9 | GGAUCUUCUCGAUCUAACAAAAAAGACAAAUCUGCCACAAAGCUUGAGGGCAUCUUCGGAUGCAGAGGCGGCAGGCAUCGGCGGCGCGAUAGGGCCAACGUUCUCAACUAUGACACGCAAAACGUGUGCUCCGCUGAAUGGAGUUCUUCAUG | ≤ -4.2
10 | GGAUCUUCUCGAUCUAACAAAAAAGACAAAUCUGCCACAAAGCUUGAGGGCAUCUUCGGAUGCAGAGGCGGCAGCCUUCGGUGGCGAGAUAGCGCCAACGUUCUCAACUAUGACACGCAAAACGCGUGCUCCGUUGAAUGGAGUUUAUCAUG | ≤ -4.2
11 | GGAUCUUCUCGAUCUAACAAAAAAGACAAAUCUGCCACAAAGCUUGAGGGCAUCUUCGGAUGCAGAGGCGGCAGCCUUCGGUGGCGGGAUAGCGCCAACGUUCUCAACUAUGACACGCAAAACGCGUGCUCCGUUGAAUGGAGUUUACCAUG | ≤ -4.2
12 | GGAUCUUCUCGAUCUAACAAAAAAGACAAAUCUGCCACAAAGCUUGAGGGCAUCUUCGGAUGCAGAGGCGGCAGCCUUCGGUGGCGCGAUAGGGCCAACGUGCUCGACUAUGACACGCAAAACGCGUGCUCCGUUGAAUGGAGUUUAUCAUG | ≤ -4.2
13 | GGAUCUUCUCGAUCUAACAAAAAAGACAAAUCUGCCACAAAGCUUGAGGGCAUCUUCGGAUGCAGAGGCGGCAGCCUUCGGUGGCGCGAUAGCGCGAACGUUCUCAACUAUGACACGCAAAACGCGUGCUCCGUUGAAUGGAGUUUAUCAUG | -1.61
14 | GGAUCUUCUCGAUCUAACAAAAAAGACAAAUCUGCCACAAAGCUUGAGGGCAUCUUCGGAUGCAGAGGCGGCAGCCUUCGGUGGCGCGAUAGCGCCAACGUUCUUAACUAUGGCCCGCAAAACGCGUGCUCCGUUGAAUGGAGUUUUUCAUG | ≤ -4.2
15 | GGAUCUUCUCGAUCUAACAAAAAAGACAAAUCUGCCACAAAGCUUGAGGGCAUCUUCGGAUGCAGAGGCGGCAGCCUUCGGUGGCGCGAUAGCGCCAACGUUCUCAACUAUGACACGCAAAACGCGUGCUGCAUUGAAUGGAGUUUAUCAUG | ≤ -4.2
16 | GGAUCUUCUCGAUCUAACAAAAAAGACAAAUCUGCCACAAAGCUUGAGGACGUCUUCGGCUGCAGAGGCGGCAGCCUUCGGUGGCGCGAUAGAGCCAACGUUCUCAACUAUGACAAGCAUAACGCGUGCUCCGUUGAAUGGAGUUUAUCAUG | ≤ -4.2
17 | GGAUCUUCUCGAUCUAACAAAAAAGACAAAUCUGCCACAAAGCUUGAGGACAUCUUCGGAUGCAGAGGCGGCAGCCUUCGGUGGCGCGAUAGCGCCAACGUUCUCAACUAUGACACGCAAAACGCGUGCUCCGUUGAAUUGAGUUUAUCAUG | -3.96
18 | GGAUCUUCUCGAUCUAACAAAAAAGACAAAUCUGCCACAAAGCUUGAGGUUAUCUUCGGAUGCAGAGGCGGCAGCCUUCGGUGGCGCGAUAGCGCUACCGUUCUCAACUAUGACACGCAAAACGCAUGCUCCGGUGAAUGGAGUUAAUCAUG | -3.95
19 | GGAUCUUCUCGAUCUAACAAAAAAGACAAAUCUGCCACAAAGCUUGAGGGCAUCUUCGCAUGCAGAGGCGGCAGCCUUCGGUGGCGGGAUAGCGCCAACGUUCUCAACUAUGACACGCAAAACGUGUGCUCCGUUGACUGGAGUUUAUCAUG | ≤ -4.2
